# Results reported in the supplement of paper PMC4604168 (melanoma cell lines).
# The other results are listed elsewhere or left out. Many values rest on one well or one pass, so single values are uncertain.
# Key:
# Assay in all cases: cell count relative to DMSO control; melanoma cells; higher = more viable cells
# Details in all cases: library dose: standard library concentration; 72 h
# A101D = system: A101D
# A2058 = system: A2058
# A375 = system: A375
# 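Also: cells treated in 1,536-well plates, then fixed and DAPI-stained, with nuclei counted from automated high-throughput microscope images.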
SMILES,cell count (A101D),cell count (A2058),cell count (A375)
"CC1(C)CCC(c2ccc(Cl)cc2)=C(CN2CCN(c3ccc(C(=O)NS(=O)(=O)c4ccc(N[C@H](CCN5CCOCC5)CSc5ccccc5)c(S(=O)(=O)C(F)(F)F)c4)cc3)CC2)C1 + C=C(c1ccc(C(=O)O)cc1)c1cc2c(cc1C)C(C)(C)CCC2(C)C [Bexarotene] (first compound 2 µM, partner dose 10 µM)",45.1%,88.9%,61%
"CC1(C)CCC(c2ccc(Cl)cc2)=C(CN2CCN(c3ccc(C(=O)NS(=O)(=O)c4ccc(N[C@H](CCN5CCOCC5)CSc5ccccc5)c(S(=O)(=O)C(F)(F)F)c4)cc3)CC2)C1 + CC(C)(C)c1cnc(CSc2cnc(NC(=O)C3CCNCC3)s2)o1 [SNS-032] (first compound 2 µM, partner dose 0.05 µM)",38.2%,68.2%,103%
"Cc1ccc(Nc2nccc(N(C)c3ccc4c(C)n(C)nc4c3)n2)cc1S(N)(=O)=O [Pazopanib] + CS(=O)(=O)CCNCc1ccc(-c2ccc3ncnc(Nc4ccc(OCc5cccc(F)c5)c(Cl)c4)c3c2)o1 [lapatinib] (first compound 2 µM, partner dose 4 µM)",60%,82.7%,125%
"CC1(C)CCC(c2ccc(Cl)cc2)=C(CN2CCN(c3ccc(C(=O)NS(=O)(=O)c4ccc(N[C@H](CCN5CCOCC5)CSc5ccccc5)c(S(=O)(=O)C(F)(F)F)c4)cc3)CC2)C1 + COc1ccc2c(c1)CCC1C2CCC2(C)C(NCCCCCCN3C(=O)C=CC3=O)CCC12 [U73122] (first compound 2 µM, partner dose 2 µM)",31.2%,48.8%,70.8%
"Cc1ccc(Nc2nccc(N(C)c3ccc4c(C)n(C)nc4c3)n2)cc1S(N)(=O)=O [Pazopanib] + Cn1c(Nc2ccc(C(F)(F)F)cc2)nc2cc(Oc3ccnc(-c4ncc(C(F)(F)F)[nH]4)c3)ccc21 [CHIR265] (first compound 2 µM, partner dose 0.4 µM)",59.4%,51%,93.9%
"CC1(C)CCC(c2ccc(Cl)cc2)=C(CN2CCN(c3ccc(C(=O)NS(=O)(=O)c4ccc(N[C@H](CCN5CCOCC5)CSc5ccccc5)c(S(=O)(=O)C(F)(F)F)c4)cc3)CC2)C1 + C#Cc1cccc(Nc2ncnc3cc(OCCOC)c(OCCOC)cc23)c1 [erlotinib] (first compound 2 µM, partner dose 4 µM)",20.4%,52.7%,43.1%
"O=C(/C=C/c1cccnc1)NCCCCC1CCN(C(=O)c2ccccc2)CC1 + CC(=O)c1c(C)c2cnc(Nc3ccc(N4CCNCC4)cn3)nc2n(C2CCCC2)c1=O [palbociclib] (first compound 0.05 µM, partner dose 0.2 µM)",63.3%,106%,102%
"CC1(C)CCC(c2ccc(Cl)cc2)=C(CN2CCN(c3ccc(C(=O)NS(=O)(=O)c4ccc(N[C@H](CCN5CCOCC5)CSc5ccccc5)c(S(=O)(=O)C(F)(F)F)c4)cc3)CC2)C1 + Nc1ncn([C@H]2C[C@H](O)[C@@H](CO)O2)c(=O)n1 [decitabine] (first compound 2 µM, partner dose 0.5 µM)",39%,82.2%,94.4%
"O=C(/C=C/c1cccnc1)NCCCCC1CCN(C(=O)c2ccccc2)CC1 + O=C(O)c1ccc(-c2c[nH]c3ncc(-c4ccccc4)cc23)cc1C1CCCC1 [GSK650394] (first compound 0.05 µM, partner dose 0.8 µM)",84.9%,97.4%,119%
"Cc1ccc(Nc2nccc(N(C)c3ccc4c(C)n(C)nc4c3)n2)cc1S(N)(=O)=O [Pazopanib] + CCCCCCCCc1ccc(CCC(N)(CO)CO)cc1 [fingolimod] (first compound 2 µM, partner dose 10 µM)",7.68%,12.9%,76.6%
"O=C(/C=C/c1cccnc1)NCCCCC1CCN(C(=O)c2ccccc2)CC1 + Cc1cn(-c2cc(NC(=O)c3ccc(C)c(Nc4nccc(-c5cccnc5)n4)c3)cc(C(F)(F)F)c2)cn1 [nilotinib] (first compound 0.05 µM, partner dose 1 µM)",86.6%,102%,121%
"Cc1ccc(Nc2nccc(N(C)c3ccc4c(C)n(C)nc4c3)n2)cc1S(N)(=O)=O [Pazopanib] + Cn1sc(=O)n(Cc2ccccc2)c1=O [TDZD-8] (first compound 2 µM, partner dose 2 µM)",85.1%,74%,118%
"Cc1ccc(Nc2nccc(N(C)c3ccc4c(C)n(C)nc4c3)n2)cc1S(N)(=O)=O [Pazopanib] + CC1(C)NC(=O)N(c2ccc([N+](=O)[O-])c(C(F)(F)F)c2)C1=O [nilutamide] (first compound 2 µM, partner dose 5 µM)",92.3%,107%,93.5%
"O=C(/C=C/c1cccnc1)NCCCCC1CCN(C(=O)c2ccccc2)CC1 + COc1ccc(C2=N[C@@H](c3ccc(Cl)cc3)[C@@H](c3ccc(Cl)cc3)N2C(=O)N2CCNC(=O)C2)c(OC(C)C)c1 [Nutlin-3] (first compound 0.05 µM, partner dose 0.5 µM)",78.1%,113%,113%
"CC1(C)CCC(c2ccc(Cl)cc2)=C(CN2CCN(c3ccc(C(=O)NS(=O)(=O)c4ccc(N[C@H](CCN5CCOCC5)CSc5ccccc5)c(S(=O)(=O)C(F)(F)F)c4)cc3)CC2)C1 + CN(NC(=O)CC(=O)NN(C)C(=S)c1ccccc1)C(=S)c1ccccc1 [STA4783] (first compound 2 µM, partner dose 0.03 µM)",29.7%,22.5%,60.3%
"Cc1ccc(Nc2nccc(N(C)c3ccc4c(C)n(C)nc4c3)n2)cc1S(N)(=O)=O [Pazopanib] + CC(C)(C)c1cnc(CSc2cnc(NC(=O)C3CCNCC3)s2)o1 [SNS-032] (first compound 2 µM, partner dose 0.05 µM)",58.8%,92.8%,65.8%
"CC1(C)CCC(c2ccc(Cl)cc2)=C(CN2CCN(c3ccc(C(=O)NS(=O)(=O)c4ccc(N[C@H](CCN5CCOCC5)CSc5ccccc5)c(S(=O)(=O)C(F)(F)F)c4)cc3)CC2)C1 + C[C@@H](Oc1cc(-c2cnn(C3CCNCC3)c2)cnc1N)c1c(Cl)ccc(F)c1Cl [Crizotinib] (first compound 2 µM, partner dose 1 µM)",44%,72.8%,57.6%
"Cc1ccc(Nc2nccc(N(C)c3ccc4c(C)n(C)nc4c3)n2)cc1S(N)(=O)=O [Pazopanib] + CC(=O)O[C@@]12CO[C@@H]1C[C@H](O)[C@@]1(C)C(=O)[C@H](O)C3=C(C)[C@@H](OC(=O)[C@H](O)[C@@H](NC(=O)OC(C)(C)C)c4ccccc4)C[C@@](O)([C@@H](OC(=O)c4ccccc4)[C@H]21)C3(C)C [Docetaxel] (first compound 2 µM, partner dose 0.0005 µM)",34.7%,10.6%,62.4%
"Cc1ccc(Nc2nccc(N(C)c3ccc4c(C)n(C)nc4c3)n2)cc1S(N)(=O)=O [Pazopanib] + Cc1cc(N2CCOCC2)cc2[nH]c(-c3c(NC[C@@H](O)c4cccc(Cl)c4)cc[nH]c3=O)nc12 [BMS536924] (first compound 2 µM, partner dose 1 µM)",75.4%,74.8%,87%
"CC1(C)CCC(c2ccc(Cl)cc2)=C(CN2CCN(c3ccc(C(=O)NS(=O)(=O)c4ccc(N[C@H](CCN5CCOCC5)CSc5ccccc5)c(S(=O)(=O)C(F)(F)F)c4)cc3)CC2)C1 + C[C@]1(c2nc3c(C(N)=O)cccc3[nH]2)CCCN1 [Veliparib] (first compound 2 µM, partner dose 7 µM)",45.2%,78.4%,74.3%
"O=C(/C=C/c1cccnc1)NCCCCC1CCN(C(=O)c2ccccc2)CC1 + Cn1c(Nc2ccc(C(F)(F)F)cc2)nc2cc(Oc3ccnc(-c4ncc(C(F)(F)F)[nH]4)c3)ccc21 [CHIR265] (first compound 0.05 µM, partner dose 0.4 µM)",50.3%,64.4%,79.5%
"O=C(/C=C/c1cccnc1)NCCCCC1CCN(C(=O)c2ccccc2)CC1 + Cc1ccc(NC(=O)c2cccc(N(C)C)c2)cc1NC(=O)c1ccc(O)cc1 [ZM336372] (first compound 0.05 µM, partner dose 10 µM)",93.4%,154%,119%
"O=C(/C=C/c1cccnc1)NCCCCC1CCN(C(=O)c2ccccc2)CC1 + C=C(c1ccc(C(=O)O)cc1)c1cc2c(cc1C)C(C)(C)CCC2(C)C [Bexarotene] (first compound 0.05 µM, partner dose 10 µM)",94.2%,137%,107%
"O=C(/C=C/c1cccnc1)NCCCCC1CCN(C(=O)c2ccccc2)CC1 + C=CCn1c(=O)c2cnc(Nc3ccc(N4CCN(C)CC4)cc3)nc2n1-c1cccc(C(C)(C)O)n1 [MK1775] (first compound 0.05 µM, partner dose 0.1 µM)",51.7%,89.6%,63.5%
"O=C(/C=C/c1cccnc1)NCCCCC1CCN(C(=O)c2ccccc2)CC1 + CC1(C)NC(=O)N(c2ccc([N+](=O)[O-])c(C(F)(F)F)c2)C1=O [nilutamide] (first compound 0.05 µM, partner dose 5 µM)",93.2%,113%,112%
"CC1(C)CCC(c2ccc(Cl)cc2)=C(CN2CCN(c3ccc(C(=O)NS(=O)(=O)c4ccc(N[C@H](CCN5CCOCC5)CSc5ccccc5)c(S(=O)(=O)C(F)(F)F)c4)cc3)CC2)C1 + Cn1nnc2c(C(N)=O)ncn2c1=O [temozolomide] (first compound 2 µM, partner dose 10 µM)",38.6%,32.7%,76.1%
